Out of some 340,000 compounds screened, about 12,000 (3.5%) were called active. This list was built around the results that the source calls inconclusive (neither active nor inactive); the mix of calls is not that of the screen. The call rests on the fitted dose curve; in most records, active means well fitted inhibition curve with a large enough effect; inconclusive means small, poorly fitted or top-dose-only effect, or another doubt; inactive means no such curve, though single readings can be large or run the other way. Potencies of inconclusive entries are left out as doubtful fits.
Test: qHTS Assay for Inhibitors of Hepatitis C Virus (HCV)
Details: Huh7.5.1 HCVcc-Cre (HCVcc is cell-culture hepatitis C virus) infection, luciferase reporter, 44 h; activity change, negative = inhibition: at 41.8 µM (top of the series) unless noted
Procedure, shortened: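 After 44 h co-culture of compound, cells and HCVcc-Cre (~0.5 moi), substrate is added for 15 min at room temperature and luciferase measured over 15 sec. Cells were seeded at 1,000/well and pre-cultured 4 h.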
On the % scale 0 is the no-effect control and ±100 the full control effect; potency means the concentration at half of the fitted maximal effect; tags describe the fitted curve by direction and shape.

Q: Which “activity change, negative = inhibition” value does the source give for `N/C(=N\OS(=O)(=O)c1ccccc1)c1cccnc1` here?
A: inactive: 13.7%

Q: Which “activity change, negative = inhibition” value does the source give for `CCn1nnnc1SCC(=O)N1CCCCC1` here?
A: inactive: 9.85%

Q: Which Potency does the source give for `CCOC(=O)C1=C(C)Nc2ccccc2N=C1NC(=O)c1ccc(Cl)c(S(=O)(=O)N2CCCC2)c1` here?
A: inconclusive [inhibitor, single point]

Q: For `Cc1ccc(NC(=O)c2cc(S(=O)(=O)NCCc3ccccc3)ccc2F)cc1Cl`, which Potency is on record?
A: inconclusive [inhibitor, partial curve]

Q: With `CCC(=O)Nc1sc2c(c1C#N)CC(C)(CC)OC2` (configuration not stated) as the compound, how does the Potency read?
A: inconclusive [inhibitor, partial curve]

Q: For `COc1ccccc1/C=C1\SC(=S)N(CCC(=O)NCCCN2CCOCC2)C1=O`, which Potency is on record?
A: inconclusive [inhibitor, partial curve, poor fit]

Q: For `CCOC(=O)Cc1csc(NC(=O)Nc2cccc(Cl)c2)n1`, which Potency is on record?
A: inconclusive [inhibitor, single point]

Q: Which Potency does the source give for `Cc1cc(=O)oc2cc3c(cc12)CCCN3` here?
A: inconclusive [inhibitor, single point]

Q: Which Potency does the source give for `S=C(c1ccc(-c2ccc(Cl)cc2Cl)o1)N1CCCCC1` here?
A: inconclusive [inhibitor, partial curve]

Q: For `Clc1cccc(Cl)c1Cn1cnc(=NCc2ccco2)c2[nH]cnc21`, which “activity change, negative = inhibition” value is on record?
A: inactive: -12.4%

Q: Which Potency does the source give for `COc1ccc(NC(=O)C2CCCNC2)cc1OCC(C)C` (configuration not stated) here?
A: inconclusive [inhibitor, full curve]

Q: With `CCOc1cc(C(=O)Nc2c3c(nn2C(C)(C)C)CS(=O)C3)cc(OCC)c1OCC` (configuration not stated) as the compound, how does the Potency read?
A: inconclusive [inhibitor, single point]

Q: For `COc1ccc(C(=O)CSc2nc(-c3ccccn3)nc(C)c2Cl)cc1`, which Potency is on record?
A: active: 4.47 µM

Q: Which Potency does the source give for `CCOC(=O)N1CCN(C(=O)CSc2cc(C)nc3c(-c4ccccc4OC)c(C)nn23)CC1` here?
A: inconclusive [inhibitor, partial curve]

Q: For `COc1cc(OC)c(OC)cc1/C=N/NC(=O)c1ccc(CSc2nc(C)cc(C)n2)cc1`, which Potency is on record?
A: inconclusive [inhibitor, full curve, poor fit]

Q: Which Potency does the source give for `Fc1ccc(C2c3cccn3CCN2C(=S)Nc2cccc(Br)c2)cc1` (configuration not stated) here?
A: active: 10 µM

Q: For `CCOCCCNC(=S)N1C2CCC1CC(NC(=O)Nc1ccc(C(=O)OCC)cc1)C2` (configuration not stated), which Potency is on record?
A: inconclusive [inhibitor, single point]

Q: For `C=CCN1C(=O)C(Cc2ccc(C)cc2)S/C1=N/N=C/c1ccco1` (configuration not stated), which “activity change, negative = inhibition” value is on record?
A: inactive: -12.1%

Q: With `COc1ccccc1-n1c(CNC(=O)c2ccco2)nnc1SCC(=O)Nc1nccs1` as the compound, how does the Potency read?
A: inconclusive [inhibitor, single point]

Q: With `CC(OC(=O)c1cccc(-n2cnnn2)c1)C(=O)Nc1ccccc1F` (configuration not stated) as the compound, how does the Potency read?
A: inconclusive [inhibitor, single point]

Q: For `COc1cc(-c2cc(=O)c3c(O)cc(O)cc3o2)ccc1O`, which Potency is on record?
A: active: 12.6 µM

Q: With `CSCC[C@H](N)C(=O)NCC1CCC(C(=O)Nc2ccc3c(c2)OCO3)CC1` (some centres not stated) as the compound, how does the Potency read?
A: inconclusive [inhibitor, partial curve, poor fit]

Q: Which Potency does the source give for `COc1cc2nc(/C=C/c3cc(OC)c(OC)c(OC)c3)sc2cc1SC` here?
A: active: 10 µM

Q: With `CN(C)CCCN(C(=O)c1cccs1)c1nc(-c2ccccc2)cs1` as the compound, how does the Potency read?
A: inconclusive [inhibitor, single point]

Q: For `CC(C)=CCc1ccc(O)c(=O)cc1C(C)C`, which Potency is on record?
A: inconclusive [inhibitor, single point]

Q: Which “activity change, negative = inhibition” value does the source give for `CCOCCCNC(=O)c1cc(-c2ccc(Br)s2)nc2ccccc12` here?
A: inactive: -16%

Q: For `O=C(NC(=S)NC1CCN(Cc2ccccc2)CC1)c1ccc(F)cc1`, which Potency is on record?
A: inconclusive [inhibitor, single point]

Q: With `CC(C)Cn1c(=O)c2ccccc2n2c(CCC(=O)NCC3CCCO3)nnc12` (configuration not stated) as the compound, how does the “activity change, negative = inhibition” value read?
A: inactive: -11.4%

Q: For `CCOc1cc(CNCCSc2nnnn2C)cc(Br)c1OCc1ccccc1`, which Potency is on record?
A: active: 2.82 µM

Q: With `COCCCn1c(SCC(=O)Nc2ccc(C(=O)OC)cc2)nc2ccccc2c1=O` as the compound, how does the “activity change, negative = inhibition” value read?
A: inactive: -13.2%

Q: For `Cc1cc(C)nc(/N=C(\N)Nc2ccc(CC(=O)OC(C)C)cc2)n1`, which Potency is on record?
A: active: 3.55 µM

Q: Which Potency does the source give for `COc1ccc(C2CC(c3ccc([N+](=O)[O-])cc3)=NN2C(C)=O)cc1` (configuration not stated) here?
A: inconclusive [inhibitor, full curve, poor fit]

Q: Which Potency does the source give for `C[C@H](CO)N1C[C@H](C)[C@@H](CN(C)S(=O)(=O)c2cccs2)Oc2ccc(NC(=O)Nc3ccc(C(F)(F)F)cc3)cc2C1=O` here?
A: inconclusive [inhibitor, single point]

Q: For `CCOc1cc(/C=C2\COc3ccccc3C2=O)cc(Br)c1OCC(=O)N(C)C`, which Potency is on record?
A: inconclusive [inhibitor, partial curve]

Q: For `CCOc1ccc(C(=O)C(C)OC(=O)CN2C(=O)NC(C)(C)C2=O)cc1` (configuration not stated), which “activity change, negative = inhibition” value is on record?
A: inactive: -16.1%

Q: With `Cc1ccn2c(/C=N/OCc3ccc(F)cc3)c(-c3ccc(Cl)cc3)nc2c1` as the compound, how does the Potency read?
A: inconclusive [inhibitor, full curve, poor fit]

Q: For `O=[N+]([O-])c1cc(Cl)cc2c1nc(NCCO)c1ccccc12`, which Potency is on record?
A: active: 2 µM

Q: With `COc1cccc(/C=N/NC(=O)c2cccc([N+](=O)[O-])c2)c1OS(=O)(=O)c1ccc(C)cc1` as the compound, how does the Potency read?
A: inconclusive [inhibitor, full curve]

Q: With `COc1cccc(-c2ccc3c(c2)C2CC3CCN2C(C)=O)c1` (configuration not stated) as the compound, how does the Potency read?
A: inconclusive [inhibitor, single point]

Q: With `Cc1cc(N2CCCCC2)nc(N)n1` as the compound, how does the Potency read?
A: inconclusive [inhibitor, full curve]

Q: For `COc1ccc(-c2[nH]c(-c3ccccc3)nc2SCC(=O)NCc2ccco2)cc1OC`, which Potency is on record?
A: inconclusive [inhibitor, single point]

Q: With `Cc1cc(NC(=O)Nc2ccc(Cl)cc2)n(-c2ccccc2)n1` as the compound, how does the Potency read?
A: inconclusive [inhibitor, partial curve, poor fit]

Q: Which “activity change, negative = inhibition” value does the source give for `Cc1cccc(N2C(=O)c3cccc4c(N5CCCCC5)c([N+](=O)[O-])cc(c34)C2=O)c1C` here?
A: inactive: 0.212%

Q: For `O=C(NCC1CCCO1)c1cc2c(s1)CCC2` (configuration not stated), which “activity change, negative = inhibition” value is on record?
A: inactive: 11.4%

Q: For `CSCCC(NC(=O)/C(=C\c1ccc(Cl)cc1)NC(=O)c1ccccc1)C(=O)O` (configuration not stated), which “activity change, negative = inhibition” value is on record?
A: inactive: 10.2%

Q: For `Cc1c(C(=O)N2CCCC2)oc2ccc(Br)cc12`, which Potency is on record?
A: inconclusive [inhibitor, partial curve]

Q: With `COc1ccc(OC)c(-c2csc(NC(=O)Cc3cc(OC)c(OC)c(OC)c3)n2)c1` as the compound, how does the Potency read?
A: active: 11.2 µM

Q: With `CCc1ccc(NC(=O)C2=CC(c3ccc(OC)cc3)=NS(=O)(=O)N2C)cc1` as the compound, how does the Potency read?
A: inconclusive [inhibitor, single point]

Q: Which Potency does the source give for `Cc1ccc(S(=O)(=O)Nc2ccc3c(c2)CC(=O)N([C@H](C)CO)C[C@@H](C)[C@H](CN(C)Cc2ccc(-c4ccccc4)cc2)O3)cc1` here?
A: inconclusive [inhibitor, single point]

Q: With `FC(F)Oc1ccc(C2N=C(c3ccccc3)NO2)cc1` (configuration not stated) as the compound, how does the “activity change, negative = inhibition” value read?
A: inactive: -14.2%

Q: Which Potency does the source give for `COc1ccc(-c2noc(CCC(=O)Nc3ccc4c(c3)OCCO4)n2)cc1` here?
A: inconclusive [inhibitor, single point]

Q: Which Potency does the source give for `C=C1CCN(C(C)C(=O)O)S(=O)(=O)c2ccccc21` (configuration not stated) here?
A: active: 1.41 µM

Q: For `COc1ccc2c(c1)c(CC(=O)OCC(=O)N(C)C)c(C)n2C(=O)c1ccc(Cl)cc1`, which “activity change, negative = inhibition” value is on record?
A: inactive: 10%

Q: Which Potency does the source give for `Cc1ccc(C)c2[nH]c(=O)c(CCNC(=O)c3ccc4c(c3)OCO4)cc12` here?
A: inconclusive [inhibitor, single point]

Q: With `Cc1ccc2nc(N3CCN(Cc4ccc(F)cc4)C3=O)c(C)cc2c1` as the compound, how does the Potency read?
A: inconclusive [inhibitor, partial curve]

Q: For `O=C(c1ccc(NS(=O)(=O)c2cccs2)cc1)N1CCCCC1`, which Potency is on record?
A: active: 2.82 µM

Q: For `CCN(CC(=O)Nc1c(F)cccc1F)C(=O)CSc1nc2ccccc2o1`, which “activity change, negative = inhibition” value is on record?
A: inactive: -10.9%

Q: For `O=C(c1cccs1)N1CCCN(c2ncnc3scc(-c4ccccc4)c23)CC1`, which activity change, negative = inhibition is on record?
A: inconclusive: -73.7% [inhibitor]

Q: With `O=C(NCc1ccccc1)C1COc2ccccc2O1` (configuration not stated) as the compound, how does the “activity change, negative = inhibition” value read?
A: inactive: 15%

Q: With `CC(=O)c1ccc(Nc2nc(NCCO)nc(OC(C(F)(F)F)C(F)(F)F)n2)cc1` as the compound, how does the Potency read?
A: inconclusive [inhibitor, single point]

Q: With `COc1nc(NCC(C)C)nc(Oc2ccc(=O)n(-c3ccccc3)n2)n1` as the compound, how does the “activity change, negative = inhibition” value read?
A: inactive: 1.42%

Q: For `CC1C/C(=C/c2ccco2)C(=O)/C(=C/c2ccco2)C1` (configuration not stated), which activity change, negative = inhibition is on record?
A: inactive: 1.42% [at 0.335 µM]

Q: For `Fc1ccc(OCCn2cnc(Cl)c2Cl)cc1`, which “activity change, negative = inhibition” value is on record?
A: inactive: 9.8%

Q: For `COc1ccc(CCC(=O)N2CCN(c3ccccc3)CC2)cc1OC`, which “activity change, negative = inhibition” value is on record?
A: inactive: -2.26%

Q: Which Potency does the source give for `O=C(CSc1nnc(Cc2cccs2)n1CCc1ccccc1)N1CCCc2ccccc21` here?
A: inconclusive [inhibitor, single point]

Q: With `CN(/N=C/C=C/c1ccccc1)C1=NS(=O)(=O)c2ccccc21` as the compound, how does the “activity change, negative = inhibition” value read?
A: inactive: 12.8%

Q: Which “activity change, negative = inhibition” value does the source give for `Cc1csc(NC(=O)C2CCCN(S(=O)(=O)c3cnc[nH]3)C2)n1` (configuration not stated) here?
A: inactive: -6.67%

Q: With `Cc1ccc2sc3ccc(NC(=O)c4ccccc4Cl)cc3c(=O)c2c1` as the compound, how does the Potency read?
A: active: 8.91 µM

Q: For `CC(=O)c1c(C)[nH]c(C(=O)OCc2cccc(Cl)c2)c1C`, which Potency is on record?
A: active: 11.2 µM

Q: Which Potency does the source give for `COc1cc(NC(=O)c2cc3nc(C)cc(C)n3n2)c(OC)cc1Cl` here?
A: inconclusive [inhibitor, partial curve]

Q: With `COc1cccc(NC(C)C(=O)Nc2cc([N+](=O)[O-])ccc2Cl)c1` (configuration not stated) as the compound, how does the Potency read?
A: inconclusive [inhibitor, partial curve, poor fit]

Q: With `O=[N+]([O-])c1ccc(NN=Cc2cc(Br)ccc2O)nc1` as the compound, how does the Potency read?
A: inconclusive [inhibitor, single point]

Source: PubChem BioAssay AID651820 (National Center for Advancing Translational Sciences (NCATS), 2012)
